Reference: the supplement of paper PMC3334620
Whole data set: some 33,000 sequences, median “E-score (-0.5 to 0.5)” near -0.054, cut for the highest 2% near 0.35. This is one part of the list.

target: T1, Stb5 (UniProt P38699); assay: PBM E-score (8-mer binding enrichment) (E-score (-0.5 to 0.5)); higher = stronger / more preferred TF binding; most listed sequences are background and not binding sites; settings: protein concentration: 200 nM; construct: GST-full length
T1 sequence: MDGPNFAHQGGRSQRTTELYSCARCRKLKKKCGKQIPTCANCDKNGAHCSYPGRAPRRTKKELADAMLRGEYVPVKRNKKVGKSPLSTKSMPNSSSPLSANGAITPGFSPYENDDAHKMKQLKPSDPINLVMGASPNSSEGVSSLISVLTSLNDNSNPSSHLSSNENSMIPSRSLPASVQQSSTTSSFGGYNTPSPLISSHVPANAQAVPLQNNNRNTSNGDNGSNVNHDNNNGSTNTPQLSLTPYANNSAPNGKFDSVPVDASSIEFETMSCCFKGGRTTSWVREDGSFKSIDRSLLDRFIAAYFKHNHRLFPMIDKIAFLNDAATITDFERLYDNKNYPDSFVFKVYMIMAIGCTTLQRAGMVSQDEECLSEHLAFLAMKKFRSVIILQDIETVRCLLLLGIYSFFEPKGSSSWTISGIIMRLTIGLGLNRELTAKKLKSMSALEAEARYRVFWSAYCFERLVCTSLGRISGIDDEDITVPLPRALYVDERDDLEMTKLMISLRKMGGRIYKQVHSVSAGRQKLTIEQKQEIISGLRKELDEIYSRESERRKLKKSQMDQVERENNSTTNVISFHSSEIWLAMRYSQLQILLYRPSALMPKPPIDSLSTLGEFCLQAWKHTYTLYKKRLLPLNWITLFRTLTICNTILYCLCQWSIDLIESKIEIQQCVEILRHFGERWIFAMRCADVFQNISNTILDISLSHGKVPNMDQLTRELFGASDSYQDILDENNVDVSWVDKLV
Experimental: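 Universal 'all 10-mer' protein binding microarrays (Agilent AMADID 015681) probed with GST-tagged S. cerevisiae TFs (full-length or DBD) made by in vitro transcription/translation (PURExpress), about 100-200 nM. Bound TF was detected with fluorescent anti-GST. Each ungapped 8-mer (which stands for itself and its reverse complement) is scored by the PBM enrichment score (E-score), a modified Wilcoxon-Mann-Whitney statistic from -0.5 to +0.5, computed with the Universal PBM Analysis Suite. Scale: above 0.35 generally sequence-specific binding.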

Sequence | PBM E-score
CGCTGACG | 0.142
TATGTGCA | -0.117
AAATTAAA | 0.0432
ACTGGCCA | -0.259
GTCTCCGA | 0.23
ACGAAACA | -0.163
AATCTGCC | 0.0955
GTCTGCCA | -0.175
GTACCCTA | -0.183
AACGTCTT | -0.229
GCATCAGA | 0.0292
TAAGCGGA | 0.209
CGTTAGCC | 0.0801
ACGCCACT | -0.0745
CCCAACCC | -0.148
CAGAACTA | 0.0155
ATCCAATA | -0.252
AGCTACCG | 0.0952
AGTGTACG | -0.0815
CCGTTCTC | 0.182
AGAGGGTA | -0.252
AACTGCTG | -0.198

Sequence | PBM E-score
AAATAGGA | 0.0364
CGCAGCCG | -0.0573
CACTGACG | -0.00028
GATAATTA | 0.121
CGCTCAAA | 0.0732
CTGCTTAA | -0.0795
CTGCCCAG | -0.0951
CCAGTTAG | -0.368
CTGAAGTA | -0.0991
ACAACGTG | -0.1
CAGCTAAG | -0.285
GGCTAGAC | -0.0653
CGGCAACG | 0.172
CTATCCTA | 0.00071
CGGTAATC | 0.25
AGCATCCA | -0.175
GCAAATCC | 0.121
ATGGTTAG | -0.0567
CTCCACAC | -0.288
AACCGGAG | 0.302
CTGCAAAG | -0.273
GGGGAGCA | 0.027

Sequence | PBM E-score
GCCGCCAC | 0.191
GCCTGTTA | -0.157
AGATGAAG | 0.0289
GGCAACCA | -0.0509
ACTCATGG | -0.226
ATTTCTTC | -0.0749
AGGGGCTG | -0.319
CCATTGCA | -0.0187
CTCGAACA | -0.31
CAATTGAC | -0.131
AGTTCTAC | -0.178
ACCGACCG | 0.346
CCGTAGCC | 0.114
ACTTACTG | 0.0687
CCACCGCC | 0.282
ATTTGGCA | -0.184
GAGACTCA | -0.104
GATACCGA | 0.321
GAGAGTAC | -0.0857
GGATACCA | 0.0741
AAGGTCGT | -0.196
AGGGAGTC | -0.305

Sequence | PBM E-score
AAAGCCTC | -0.0461
AGTGGAGC | -0.106
ATAAATCA | -0.129
CGGAGCTA | 0.446
AGGTGGCA | -0.0836
TATGCCAA | -0.191
CCGGTGAA | 0.307
AACTTGAC | -0.154
CTACGGAA | -0.0555
GCATTAGA | 0.00907
CCCTGCAC | -0.052
GCGCCGAC | 0.28
ATTTACCA | 0.101
ACAGTTGC | -0.201
CCGCTTCC | 0.229
CCACTTAA | -0.078
AGGTGCTC | -0.354
AAGAGATC | 0.0165
CATCTACG | 0.0874
AAACTCGC | -0.0595
AGCCCCAC | 0.065
ACAGTGGC | -0.15

Sequence | PBM E-score
GGGCTGGA | -0.153
CGTTCAAG | -0.00789
GCAGAGGA | -0.247
TCCCATAA | -0.245
AACACAGT | -0.194
TACCTCGA | -0.111
CAGTAACG | -0.0414
GTCGGCGA | 0.242
TGATCGAA | -0.163
CAGCTCAG | -0.221
AATGGTGT | -0.0334
CCTGTCCC | -0.175
ATATTTCC | 0.348
TATGCCGA | 0.294
ATGTCGTA | -0.313
AGAACCTG | -0.261
GATTAAAC | 0.221
CGTGTCCA | -0.174
TAACGATA | -0.224
AGGGACTC | -0.24
ACCAAGTG | -0.168
